Data: the supplement of paper PMC8728848
Some of the results follow.

Tests used:
Test in all cases: glycan array binding signal (z-score within array); higher = stronger binding
Conditions in all cases: glycan notation: IUPAC condensed, linker removed
[1] = biological target: Man(a1-2)Man(a1-6)[Man(a1-3)]Man(a1-6)[Man(a1-2)Man(a1-2)Man(a1-3)]Man(b1-4)GlcNAc(b1-4)GlcNAc
Outline: (§1)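 From the Consortium for Functional Glycomics database, 3228 arrays were curated, keeping only those whose protein sequence was available. Binding is given as a within-array Z-score averaged across arrays sharing a protein sequence and across linkers. Negative Z-scores can be read as non-binding.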

Man(a1-3)[Man(a1-6)]Man = biological target: Man(a1-3)[Man(a1-6)]Man
Outline: as §1

[2] = biological target: Man(a1-3)[Man(a1-6)]Man(a1-6)[Man(a1-2)Man(a1-3)]Man(b1-4)GlcNAc(b1-4)GlcNAc
Outline: as §1

[3] = biological target: Man(a1-3)[Man(a1-6)]Man(a1-6)[Man(a1-3)]Man
Outline: as §1

[4] = biological target: Man(a1-3)[Man(a1-6)]Man(a1-6)[Man(a1-3)]Man(b1-4)GlcNAc(b1-4)GlcNAc
Outline: as §1

[5] = biological target: Man(a1-3)[Man(a1-6)]Man(b1-4)GlcNAc(b1-4)GlcNAc
Outline: as §1

Man(a1-6)Man = biological target: Man(a1-6)Man
Outline: as §1

Man(b1-4)GlcNAc = biological target: Man(b1-4)GlcNAc
Outline: as §1

Neu5Ac(a2-3)Gal = biological target: Neu5Ac(a2-3)Gal
Outline: as §1

[6] = biological target: Neu5Ac(a2-3)Gal(b1-3)GalNAc
Outline: as §1

[7] = biological target: Neu5Ac(a2-3)Gal(b1-3)GalNAc(b1-3)Gal(a1-4)Gal(b1-4)Glc
Outline: as §1

[8] = biological target: Neu5Ac(a2-3)Gal(b1-3)GalNAc(b1-3)Gal(b1-4)GlcNAc
Outline: as §1

[9] = biological target: Neu5Ac(a2-3)Gal(b1-3)GalNAc(b1-4)[Neu5Ac(a2-3)]Gal(b1-4)Glc
Outline: as §1

[10] = biological target: Neu5Ac(a2-3)Gal(b1-3)GalNAc6S
Outline: as §1

[11] = biological target: Neu5Ac(a2-3)Gal(b1-3)GlcNAc
Outline: as §1

[12] = biological target: Neu5Ac(a2-3)Gal(b1-3)GlcNAc(b1-3)Gal(b1-3)GlcNAc
Outline: as §1

[13] = biological target: Neu5Ac(a2-3)Gal(b1-3)GlcNAc6S
Outline: as §1

[14] = biological target: Neu5Ac(a2-3)Gal(b1-3)[Fuc(a1-4)]GlcNAc
Outline: as §1

[15] = biological target: Neu5Ac(a2-3)Gal(b1-3)[Fuc(a1-4)]GlcNAc(b1-3)Gal(b1-4)[Fuc(a1-3)]GlcNAc
Outline: as §1

[16] = biological target: Neu5Ac(a2-3)Gal(b1-3)[Neu5Ac(a2-3)Gal(b1-4)]GlcNAc
Outline: as §1

[17] = biological target: Neu5Ac(a2-3)Gal(b1-3)[Neu5Ac(a2-6)]GalNAc
Outline: as §1

Neu5Ac(a2-3)Gal(b1-4)Glc = biological target: Neu5Ac(a2-3)Gal(b1-4)Glc
Outline: as §1

[18] = biological target: Neu5Ac(a2-3)Gal(b1-4)GlcNAc
Outline: as §1

[19] = biological target: Neu5Ac(a2-3)Gal(b1-4)GlcNAc(b1-2)Man(a1-3)[GlcNAc(b1-2)Man(b1-4)GlcNAc(b1-2)Man(a1-6)]Man(b1-4)GlcNAc(b1-4)GlcNAc
Outline: as §1

[20] = biological target: Neu5Ac(a2-3)Gal(b1-4)GlcNAc(b1-2)Man(a1-3)[Neu5Ac(a2-3)Gal(b1-4)GlcNAc(b1-2)Man(a1-6)]Man(b1-4)GlcNAc(b1-4)GlcNAc
Outline: as §1

[21] = biological target: Neu5Ac(a2-3)Gal(b1-4)GlcNAc(b1-2)Man(a1-3)[Neu5Ac(a2-6)Gal(b1-4)GlcNAc(b1-2)Man(a1-6)]Man(b1-4)GlcNAc(b1-4)GlcNAc
Outline: as §1

[22] = biological target: Neu5Ac(a2-3)Gal(b1-4)GlcNAc(b1-3)Gal(b1-3)GlcNAc
Outline: as §1

[23] = biological target: Neu5Ac(a2-3)Gal(b1-4)GlcNAc(b1-3)Gal(b1-4)GlcNAc
Outline: as §1

[24] = biological target: Neu5Ac(a2-3)Gal(b1-4)GlcNAc(b1-3)Gal(b1-4)GlcNAc(b1-3)Gal(b1-4)GlcNAc
Outline: as §1

[25] = biological target: Neu5Ac(a2-3)Gal(b1-4)GlcNAc(b1-3)Gal(b1-4)[Fuc(a1-3)]GlcNAc
Outline: as §1

[26] = biological target: Neu5Ac(a2-3)Gal(b1-4)GlcNAc(b1-6)[Gal(b1-3)]GalNAc
Outline: as §1

[27] = biological target: Neu5Ac(a2-3)Gal(b1-4)GlcNAc(b1-6)[Neu5Ac(a2-3)Gal(b1-3)]GalNAc
Outline: as §1

[28] = biological target: Neu5Ac(a2-3)Gal(b1-4)GlcNAc6S
Outline: as §1

[29] = biological target: Neu5Ac(a2-3)Gal(b1-4)[Fuc(a1-3)]GlcNAc
Outline: as §1

[30] = biological target: Neu5Ac(a2-3)Gal(b1-4)[Fuc(a1-3)]GlcNAc(b1-3)Gal
Outline: as §1

[31] = biological target: Neu5Ac(a2-3)Gal(b1-4)[Fuc(a1-3)]GlcNAc(b1-3)Gal(b1-4)GlcNAc
Outline: as §1

[32] = biological target: Neu5Ac(a2-3)Gal(b1-4)[Fuc(a1-3)]GlcNAc(b1-3)Gal(b1-4)[Fuc(a1-3)]GlcNAc(b1-3)Gal(b1-4)[Fuc(a1-3)]GlcNAc
Outline: as §1

[33] = biological target: Neu5Ac(a2-3)Gal(b1-4)[Fuc(a1-3)]GlcNAc(b1-6)[Gal(b1-3)]GalNAc
Outline: as §1

[34] = biological target: Neu5Ac(a2-3)Gal(b1-4)[Fuc(a1-3)]GlcNAc6S
Outline: as §1

[35] = biological target: Neu5Ac(a2-3)Gal6S(b1-4)GlcNAc
Outline: as §1

[36] = biological target: Neu5Ac(a2-3)Gal6S(b1-4)[Fuc(a1-3)]GlcNAc
Outline: as §1

Neu5Ac(a2-3)GalNAc = biological target: Neu5Ac(a2-3)GalNAc
Outline: as §1

[37] = biological target: Neu5Ac(a2-3)GalNAc(b1-4)GlcNAc
Outline: as §1

[38] = biological target: Neu5Ac(a2-3)[GalNAc(b1-4)]Gal(b1-4)Glc
Outline: as §1

[39] = biological target: Neu5Ac(a2-3)[GalNAc(b1-4)]Gal(b1-4)GlcNAc
Outline: as §1

B1: L-Selectin (Mus musculus), P18337 (protein)
chain: MVFPWRCEGTYWGSRNILKLWVWTLLCCDFLIHHGTHCWTYHYSEKPMNWENARKFCKQNYTDLVAIQNKREIEYLENTLPKSPYYYWIGIRKIGKMWTWVGTNKTLTKEAENWGAGEPNNKKSKEDCVEIYIKRERDSGKWNDDACHKRKAALCYTASCQPGSCNGRGECVETINNHTCICDAGYYGPQCQYVVQCEPLEAPELGTMDCIHPLGNFSFQSKCAFNCSEGRELLGTAETQCGASGNWSSPEPICQVVQCEPLEAPELGTMDCIHPLGNFSFQSKCAFNCSEGRELLGTAETQCGASGNWSSPEPICQETNRSFSKIKEGDYNPLFIPVAVMVTAFSGLAFLIWLARRLKKGKKSQERMDDPY
glycan array binding signal (z-score) [1]: -0.153 | glycan array binding signal (z-score) (Man(a1-3)[Man(a1-6)]Man): -0.504 | glycan array binding signal (z-score) [2]: -0.031 | glycan array binding signal (z-score) [3]: -0.165 | glycan array binding signal (z-score) [4]: -0.415 | glycan array binding signal (z-score) [5]: -0.213 | glycan array binding signal (z-score) (Man(a1-6)Man): -0.017 | glycan array binding signal (z-score) (Man(b1-4)GlcNAc): -0.34 | glycan array binding signal (z-score) (Neu5Ac(a2-3)Gal): -0.262 | glycan array binding signal (z-score) [6]: -0.246 | glycan array binding signal (z-score) [7]: -0.203 | glycan array binding signal (z-score) [8]: -0.331 | glycan array binding signal (z-score) [9]: -0.468 | glycan array binding signal (z-score) [10]: 0.283 | glycan array binding signal (z-score) [11]: -0.281 | glycan array binding signal (z-score) [12]: -0.046 | glycan array binding signal (z-score) [13]: -0.124 | glycan array binding signal (z-score) [14]: 1.44 | glycan array binding signal (z-score) [15]: 0.559 | glycan array binding signal (z-score) [16]: -0.237 | glycan array binding signal (z-score) [17]: -0.133 | glycan array binding signal (z-score) (Neu5Ac(a2-3)Gal(b1-4)Glc): 0.158 | glycan array binding signal (z-score) [18]: 0.04 | glycan array binding signal (z-score) [19]: -0.498 | glycan array binding signal (z-score) [20]: -0.437 | glycan array binding signal (z-score) [21]: -0.36 | glycan array binding signal (z-score) [22]: -0.041 | glycan array binding signal (z-score) [23]: -0.283 | glycan array binding signal (z-score) [24]: 0.041 | glycan array binding signal (z-score) [25]: -0.118 | glycan array binding signal (z-score) [26]: -0.643 | glycan array binding signal (z-score) [27]: -0.367 | glycan array binding signal (z-score) [28]: -0.02 | glycan array binding signal (z-score) [29]: 1.21 | glycan array binding signal (z-score) [30]: 0.013 | glycan array binding signal (z-score) [31]: -0.036 | glycan array binding signal (z-score) [32]: -0.175 | glycan array binding signal (z-score) [33]: -0.147 | glycan array binding signal (z-score) [34]: 8.82 | glycan array binding signal (z-score) [35]: -0.165 | glycan array binding signal (z-score) [36]: 0.001 | glycan array binding signal (z-score) (Neu5Ac(a2-3)GalNAc): -0.33 | glycan array binding signal (z-score) [37]: -0.335 | glycan array binding signal (z-score) [38]: -0.195 | glycan array binding signal (z-score) [39]: -0.282
